Results on 20 sequences are retold here after the supplement of paper PMC6531468.

The other results are listed elsewhere or left out. These are enrichments in a pooled selection; single values are uncertain. Scores sum up all selected molecules that hold the word; the word was not tested alone.

Common to all, as to assay: 6-mer SELEX enrichment z-score vs GST control; IMP3 is the RNA-binding protein IGF2BP3; higher = more enriched by binding
For one assay, the system named is IMP3 KH1-4. The settings on record: construct: KH1-4 (164-579); SELEX round: R4. The method, then: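 SELEX-seq with GST-tagged IMP3 KH1-4 (Pro164-Lys579) and an N40 RNA pool, round 4. 6-mer z-score of sequence-tag enrichment normalised to the corresponding GST SELEX round; RNA k-mers written as DNA (T for U).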
Chain of IMP3 KH1-4 (chain, as listed by the source): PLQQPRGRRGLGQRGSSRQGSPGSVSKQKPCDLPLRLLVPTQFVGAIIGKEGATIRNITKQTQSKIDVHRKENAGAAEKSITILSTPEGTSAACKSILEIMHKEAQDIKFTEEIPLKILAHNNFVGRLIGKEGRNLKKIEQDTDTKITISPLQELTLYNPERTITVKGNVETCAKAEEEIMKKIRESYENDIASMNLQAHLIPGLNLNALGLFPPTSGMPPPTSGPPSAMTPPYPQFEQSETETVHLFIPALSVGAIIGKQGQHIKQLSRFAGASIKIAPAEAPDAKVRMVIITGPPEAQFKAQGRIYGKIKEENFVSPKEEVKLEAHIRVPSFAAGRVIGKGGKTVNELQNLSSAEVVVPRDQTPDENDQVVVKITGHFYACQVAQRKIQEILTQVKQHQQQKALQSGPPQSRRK
The next assay concerns IMP3 RRM1-2. The settings on record: construct: RRM1-2 (1-163); SELEX round: R2. As to the method:
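SELEX-seq with GST-tagged IMP3 RRM1-2 (Met1-Asn163) and an N40 RNA pool, round 2. 6-mer enrichment z-score normalised to GST SELEX. RNA written as DNA (T = U).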

The target in a further assay is IMP3 full-length (UniProt O00425). The conditions noted are these: construct: FL IMP3 (1-579); SELEX round: R4. The method, then: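 SELEX-seq with GST-tagged full-length IMP3 and an N40 RNA pool, round 4. Each 6-mer is scored as an enrichment z-score of sequence tags containing it, normalised to the matching GST SELEX round. RNA written as DNA (T = U).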
Chain of UniProt O00425 (O00425 whole entry): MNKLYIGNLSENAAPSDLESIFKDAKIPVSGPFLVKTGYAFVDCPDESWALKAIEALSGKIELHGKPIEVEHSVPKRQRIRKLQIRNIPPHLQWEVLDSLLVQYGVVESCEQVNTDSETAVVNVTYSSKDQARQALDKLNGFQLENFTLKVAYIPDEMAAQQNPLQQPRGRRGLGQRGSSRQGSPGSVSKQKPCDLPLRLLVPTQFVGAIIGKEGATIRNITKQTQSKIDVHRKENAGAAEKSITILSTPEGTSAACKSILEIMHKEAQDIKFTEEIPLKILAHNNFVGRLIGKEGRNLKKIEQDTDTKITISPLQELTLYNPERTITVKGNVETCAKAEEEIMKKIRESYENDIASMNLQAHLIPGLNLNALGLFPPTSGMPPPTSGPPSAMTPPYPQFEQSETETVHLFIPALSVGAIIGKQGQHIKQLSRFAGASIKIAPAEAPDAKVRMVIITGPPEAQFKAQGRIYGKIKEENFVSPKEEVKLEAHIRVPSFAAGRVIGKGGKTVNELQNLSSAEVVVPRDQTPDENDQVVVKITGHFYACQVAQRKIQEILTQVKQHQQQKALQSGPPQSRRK
The next assay deals with IMP3 KH1-2. The conditions noted are these: construct: KH1-2 (164-376); SELEX round: R4. As to the method: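 SELEX-seq with GST-tagged IMP3 KH1-2 (Pro164-Phe376) and an N40 RNA pool, round 4 (stringent 300/600 mM KCl washes). 6-mer z-score of sequence-tag enrichment normalised to the corresponding GST SELEX round; RNA k-mers written as DNA (T for U).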
Chain of IMP3 KH1-2 (chain, as listed by the source): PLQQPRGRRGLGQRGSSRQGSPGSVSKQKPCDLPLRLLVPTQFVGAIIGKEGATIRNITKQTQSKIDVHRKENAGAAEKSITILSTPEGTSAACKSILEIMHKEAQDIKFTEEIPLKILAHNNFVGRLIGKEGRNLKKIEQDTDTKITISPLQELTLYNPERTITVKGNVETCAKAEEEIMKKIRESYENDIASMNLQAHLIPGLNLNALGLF
The test system of another assay is IMP3 KH3-4. The conditions noted are these: construct: KH3-4 (377-579); SELEX round: R4. As to the method:
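SELEX-seq with GST-tagged IMP3 KH3-4 (Pro377-Lys579) and an N40 RNA pool, round 4. 6-mer z-score of sequence-tag enrichment normalised to the corresponding GST SELEX round; RNA k-mers written as DNA (T for U).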

Chain of IMP3 RRM1-2 (chain, as listed by the source): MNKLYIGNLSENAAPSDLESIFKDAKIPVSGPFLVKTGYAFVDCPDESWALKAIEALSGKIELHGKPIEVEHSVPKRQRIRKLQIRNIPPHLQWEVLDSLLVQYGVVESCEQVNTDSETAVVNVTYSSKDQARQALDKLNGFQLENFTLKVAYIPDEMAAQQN
Chain of IMP3 KH3-4 (chain, as listed by the source): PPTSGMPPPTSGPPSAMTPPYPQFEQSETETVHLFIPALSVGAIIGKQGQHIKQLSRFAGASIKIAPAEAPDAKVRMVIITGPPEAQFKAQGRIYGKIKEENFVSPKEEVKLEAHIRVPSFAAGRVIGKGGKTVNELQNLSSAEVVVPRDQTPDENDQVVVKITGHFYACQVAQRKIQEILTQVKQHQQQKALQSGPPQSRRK

In the case of CCCGAT, the “6-mer SELEX enrichment z-score” value in the assay with IMP3 KH1-4 is -1.07; with IMP3 RRM1-2 it was -0.734; in the assay with IMP3 full-length it was -0.958; in the assay on IMP3 KH1-2, -0.955; in the assay with IMP3 KH3-4, -1.35.

Regarding ATGGCT, the “6-mer SELEX enrichment z-score” value in the assay on IMP3 KH1-4 is 0.386; in the assay on IMP3 RRM1-2, 0.425; with IMP3 full-length, 0.302; in the assay on IMP3 KH1-2, 0.387; with IMP3 KH3-4, 0.622.

With AAAAAT, the “6-mer SELEX enrichment z-score” value with IMP3 KH1-4 is -0.098; with IMP3 RRM1-2 it was -2.47; with IMP3 full-length it was -2.26; in the assay on IMP3 KH1-2 it was 0.126; in the assay on IMP3 KH3-4, 1.75.

Take AAGTGA: the “6-mer SELEX enrichment z-score” value in the assay with IMP3 KH1-4 is 0.189; with IMP3 RRM1-2 it was -1.03; in the assay with IMP3 full-length it was -0.702; with IMP3 KH1-2, -0.143; with IMP3 KH3-4, 0.422.

As for GTACTC, the “6-mer SELEX enrichment z-score” value is -1.15 in the assay with IMP3 KH1-4; 0.144 in the assay on IMP3 RRM1-2; -0.573 with IMP3 full-length; -1.03 with IMP3 KH1-2; -1.01 with IMP3 KH3-4.

Take GCATTC: the “6-mer SELEX enrichment z-score” value in the assay on IMP3 KH1-4 came out at 0.518; with IMP3 RRM1-2, 0.984; with IMP3 full-length, 1.2; in the assay on IMP3 KH1-2, 0.336; in the assay on IMP3 KH3-4, 0.226.

Consider CCTGGC, for which the “6-mer SELEX enrichment z-score” value was -0.494 with IMP3 KH1-4; -0.04 in the assay with IMP3 RRM1-2; -0.052 with IMP3 full-length; -0.429 with IMP3 KH1-2; -0.712 in the assay with IMP3 KH3-4.

As to ATGGAG, the “6-mer SELEX enrichment z-score” value in the assay on IMP3 KH1-4 is 0.681; in the assay on IMP3 RRM1-2, -0.304; with IMP3 full-length, 0.111; in the assay on IMP3 KH1-2, 0.391; in the assay on IMP3 KH3-4, 0.749.

On to GATTAT, for which the “6-mer SELEX enrichment z-score” value in the assay on IMP3 KH1-4 is 1.09; in the assay on IMP3 RRM1-2, -0.066; with IMP3 full-length it was -0.019; with IMP3 KH1-2, 0.742; in the assay with IMP3 KH3-4, 1.43.

On to GCGTCC, for which the “6-mer SELEX enrichment z-score” value in the assay with IMP3 KH1-4 was -0.934; in the assay on IMP3 RRM1-2, 0.224; in the assay with IMP3 full-length, 0.571; in the assay on IMP3 KH1-2 it was -0.734; in the assay with IMP3 KH3-4, -0.762.

CTCCCG: the “6-mer SELEX enrichment z-score” value in the assay on IMP3 KH1-4 is -0.706; with IMP3 RRM1-2 it was -0.332; with IMP3 full-length it was -0.484; with IMP3 KH1-2, -0.529; in the assay on IMP3 KH3-4, -1.06.

Consider GATGCT, for which the “6-mer SELEX enrichment z-score” value was 0.099 in the assay on IMP3 KH1-4; -0.196 in the assay on IMP3 RRM1-2; -0.034 in the assay with IMP3 full-length; 0.09 in the assay on IMP3 KH1-2; 0.188 in the assay on IMP3 KH3-4.

As to TTGATT, the “6-mer SELEX enrichment z-score” value with IMP3 KH1-4 is 0.677; in the assay with IMP3 RRM1-2, 0.138; with IMP3 full-length it was -0.035; with IMP3 KH1-2 it was 0.472; in the assay on IMP3 KH3-4, 0.989.

As to CAGACA, the “6-mer SELEX enrichment z-score” value stood at 0.71 in the assay on IMP3 KH1-4; 1.93 in the assay on IMP3 RRM1-2; 1.65 in the assay with IMP3 full-length; 1.05 with IMP3 KH1-2; 0.335 in the assay on IMP3 KH3-4.

For the sequence TGGTCC, the “6-mer SELEX enrichment z-score” value was -0.288 with IMP3 KH1-4; 0.217 in the assay on IMP3 RRM1-2; 0.149 in the assay with IMP3 full-length; -0.234 with IMP3 KH1-2; -0.315 in the assay with IMP3 KH3-4.

Consider TGCTAC, for which the “6-mer SELEX enrichment z-score” value is 0.205 in the assay with IMP3 KH1-4; 0.128 in the assay with IMP3 RRM1-2; -0.022 in the assay with IMP3 full-length; 0.187 in the assay on IMP3 KH1-2; 0.086 with IMP3 KH3-4.

On to CCACCA, for which the “6-mer SELEX enrichment z-score” value with IMP3 KH1-4 was 0.301; in the assay on IMP3 RRM1-2, 1.23; with IMP3 full-length, 0.434; in the assay on IMP3 KH1-2, 0.313; in the assay with IMP3 KH3-4 it was -0.854.

For the sequence GGGTGA, the “6-mer SELEX enrichment z-score” value was 0.164 in the assay on IMP3 KH1-4; -0.139 in the assay on IMP3 RRM1-2; 0.182 with IMP3 full-length; 0.285 in the assay on IMP3 KH1-2; 0.383 in the assay with IMP3 KH3-4.

For the sequence GCTTAC, the “6-mer SELEX enrichment z-score” value in the assay with IMP3 KH1-4 amounted to 0.132; in the assay with IMP3 RRM1-2 it was 0.1; with IMP3 full-length, 0.118; in the assay on IMP3 KH1-2, 0.241; with IMP3 KH3-4, 0.138.

On to TTAATT, for which the “6-mer SELEX enrichment z-score” value with IMP3 KH1-4 amounted to 1.31; in the assay on IMP3 RRM1-2, 0.187; in the assay with IMP3 full-length, 0.288; with IMP3 KH1-2 it was 1.25; with IMP3 KH3-4 it was 2.01.
